Data taken from PubChem BioAssay AID1224863 (Southern Research Institute, 2016).
Several values for one entry are separate records, joined by “and”; a condition that tells them apart may be missing. Equal entries are not always repeated. Some of the results follow. The main result of the screen is listed elsewhere. These columns were measured beside it and carry no call.

Key:
[1] = total CFTR protein upregulators, primary screen, cell-based, HeLa F508del-CFTR, immunofluorescence, viability (AID 1224863); details: 24 h, stronger effect = higher value; min viability: measured here: HeLa viability, alamarBlue, dose 50, library dosed in µM unless noted; viability: measured here: primary viability 25 uM, at 25 µM, library dosed in µM unless noted;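 as to fold increase: total CFTR protein by anti-CFTR immunofluorescence in fixed cells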
[2] = biological target: Cystic fibrosis transmembrane conductance regulator (Homo sapiens) (UniProt P13569); test: as above; details: 24 h, stronger effect = higher value; measured here: primary screen single dose 25 uM, at 25 µM, library dosed in µM unless noted
UniProt P13569, sequence (P13569 whole entry, looked up): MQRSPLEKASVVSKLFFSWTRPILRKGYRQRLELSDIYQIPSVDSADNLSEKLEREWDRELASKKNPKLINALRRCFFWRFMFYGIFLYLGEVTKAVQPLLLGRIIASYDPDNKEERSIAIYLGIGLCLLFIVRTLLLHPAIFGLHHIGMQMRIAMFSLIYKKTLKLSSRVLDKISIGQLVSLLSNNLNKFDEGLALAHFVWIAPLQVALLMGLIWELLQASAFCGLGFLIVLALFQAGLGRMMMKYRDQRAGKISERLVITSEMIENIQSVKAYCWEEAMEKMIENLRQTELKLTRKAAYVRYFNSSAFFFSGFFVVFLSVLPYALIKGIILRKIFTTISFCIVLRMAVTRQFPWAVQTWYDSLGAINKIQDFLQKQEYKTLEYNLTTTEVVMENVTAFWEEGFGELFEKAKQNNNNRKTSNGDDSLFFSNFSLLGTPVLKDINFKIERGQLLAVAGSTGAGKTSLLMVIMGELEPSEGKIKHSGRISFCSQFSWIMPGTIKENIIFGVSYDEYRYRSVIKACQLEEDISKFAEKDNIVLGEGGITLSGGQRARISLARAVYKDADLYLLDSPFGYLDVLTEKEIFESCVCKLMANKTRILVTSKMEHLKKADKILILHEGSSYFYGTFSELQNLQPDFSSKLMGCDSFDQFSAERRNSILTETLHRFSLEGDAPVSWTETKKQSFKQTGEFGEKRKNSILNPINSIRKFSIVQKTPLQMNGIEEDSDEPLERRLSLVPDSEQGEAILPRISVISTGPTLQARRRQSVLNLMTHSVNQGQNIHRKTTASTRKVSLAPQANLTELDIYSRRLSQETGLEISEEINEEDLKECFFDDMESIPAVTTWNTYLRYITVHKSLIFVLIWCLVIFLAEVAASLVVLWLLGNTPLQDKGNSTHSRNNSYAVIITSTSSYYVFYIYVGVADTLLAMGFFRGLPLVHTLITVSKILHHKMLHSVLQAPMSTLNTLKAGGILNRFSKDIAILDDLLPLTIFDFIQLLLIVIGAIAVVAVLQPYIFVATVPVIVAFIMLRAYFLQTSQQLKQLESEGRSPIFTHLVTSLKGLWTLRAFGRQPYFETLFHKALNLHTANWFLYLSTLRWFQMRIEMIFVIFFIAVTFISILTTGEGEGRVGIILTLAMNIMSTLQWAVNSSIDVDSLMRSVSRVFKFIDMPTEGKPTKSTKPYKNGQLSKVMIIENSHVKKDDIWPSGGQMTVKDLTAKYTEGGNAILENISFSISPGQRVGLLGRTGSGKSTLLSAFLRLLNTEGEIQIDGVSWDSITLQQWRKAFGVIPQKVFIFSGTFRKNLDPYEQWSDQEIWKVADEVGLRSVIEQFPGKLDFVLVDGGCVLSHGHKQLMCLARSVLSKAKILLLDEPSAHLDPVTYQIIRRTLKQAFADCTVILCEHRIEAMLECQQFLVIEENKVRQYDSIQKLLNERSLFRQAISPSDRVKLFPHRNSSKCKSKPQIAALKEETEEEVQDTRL

Row | Compound | min viability [1] | viability [1] | fold increase [2]
1 | O=C(Nc1nc(-c2cccs2)c(-c2cccs2)s1)C1CCCC1 | 63.7% [measured here: HeLa viability, alamarBlue, dose 20, library dosed in µg/mL] | 70% [measured here: primary viability 10 ug/mL, library dosed in µg/mL] | 1.85 [measured here: primary screen 10 ug/mL, library dosed in µg/mL]
2 | O=c1[nH]c(CSC2=NCCN2)nc2cc(Cl)ccc12 | 73.2% [measured here: HeLa viability, alamarBlue, dose 0.156, library dosed in µg/mL] | 77% [measured here: primary viability 10 ug/mL, library dosed in µg/mL] | 1.46 [measured here: primary screen 10 ug/mL, library dosed in µg/mL]
3 | CC(C)c1c(C(=O)c2ccccc2)c(-c2ccccc2)c(-c2ccc(F)cc2)n1CC[C@@H](O)C[C@@H](O)CC(=O)O | 79.4% [measured here: HeLa viability, alamarBlue, dose 0.78, library dosed in µM] | 91% | 2.42
4 | c1ccc(COc2cccc(Nc3ccc4nnnn4n3)c2)nc1 | 55.7% [measured here: HeLa viability, alamarBlue, dose 1.25, library dosed in µg/mL] | 84% [measured here: primary viability 10 ug/mL, library dosed in µg/mL] | 2.23 [measured here: primary screen 10 ug/mL, library dosed in µg/mL]
5 | Cn1c(=O)c2c(ncn2CCC(=O)NCC2CCCCC2)n(C)c1=O | 70.6% [measured here: HeLa viability, alamarBlue, dose 0.63, library dosed in µg/mL] | 97% [measured here: primary viability 10 ug/mL, library dosed in µg/mL] | 3.14 [measured here: primary screen 10 ug/mL, library dosed in µg/mL]
6 | Cc1ccc(C(=O)/C=C/c2cc(Cl)c3c(c2)OCCO3)o1 | 69.8% [measured here: HeLa viability, alamarBlue, dose 0.63, library dosed in µg/mL] | 81% [measured here: primary viability 10 ug/mL, library dosed in µg/mL] | 1.48 [measured here: primary screen 10 ug/mL, library dosed in µg/mL]
7 | S=c1nc[nH]c2nc[nH]c12 | – | 69% | 1.29
8 | CCCc1nc(C)c2c(=O)[nH]c(-c3cc(S(=O)(=O)N4CCN(CC)CC4)ccc3OCC)nn12 | 55.2% [measured here: HeLa viability, alamarBlue, dose 25, library dosed in µM] | 92% and 60% and 107% | 0.96 and 2.16 and 0.97
9 | C=CCn1c(COc2ccccc2-c2ccccc2)nnc1SC1CCOC1=O (centres undefined) | 95.1% [measured here: HeLa viability, alamarBlue, dose 0.078, library dosed in µg/mL] | 98% [measured here: primary viability 10 ug/mL, library dosed in µg/mL] | 1.62 [measured here: primary screen 10 ug/mL, library dosed in µg/mL]
10 | Cn1c(-c2c(N)n(CCCN3CCOCC3)c3nc(C#N)c(C#N)nc23)nc2ccccc21 | 61% [measured here: HeLa viability, alamarBlue, dose 20, library dosed in µg/mL] | 72% [measured here: primary viability 10 ug/mL, library dosed in µg/mL] | 1.39 [measured here: primary screen 10 ug/mL, library dosed in µg/mL]
